# Experimental data: the supplement of paper PMC8728848
# This is one part of the list.
# What was measured:
# Experiment in all cases: glycan array binding signal (z-score within array); higher = stronger binding
# Conditions in all cases: glycan notation: IUPAC condensed, linker removed
# [1] = target: Neu5Ac(a2-6)Gal(b1-4)GlcNAc(b1-3)Gal(b1-4)GlcNAc(b1-3)[Neu5Ac(a2-6)Gal(b1-4)GlcNAc(b1-3)Gal(b1-4)GlcNAc(b1-6)]GalNAc
# How it was run: (§1)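 Arrays were curated from the Consortium for Functional Glycomics database, 3228 in total, and kept only where the protein sequence was available. Binding is expressed as a within-array Z-score. This score was averaged across arrays of the same protein sequence at different concentrations or buffers and across linkers, and negative values can be read as non-binding.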
# [2] = target: Neu5Ac(a2-6)Gal(b1-4)GlcNAc(b1-3)Gal(b1-4)GlcNAc(b1-6)[Gal(b1-3)]GalNAc
# How it was run: as §1
# [3] = target: Neu5Ac(a2-6)Gal(b1-4)GlcNAc(b1-3)Gal(b1-4)[Fuc(a1-3)]GlcNAc(b1-3)Gal(b1-4)[Fuc(a1-3)]GlcNAc
# How it was run: as §1
# [4] = target: Neu5Ac(a2-6)Gal(b1-4)GlcNAc(b1-3)GalNAc
# How it was run: as §1
# [5] = target: Neu5Ac(a2-6)Gal(b1-4)GlcNAc(b1-3)[Neu5Ac(a2-6)Gal(b1-4)GlcNAc(b1-6)]GalNAc
# How it was run: as §1
# [6] = target: Neu5Ac(a2-6)Gal(b1-4)GlcNAc(b1-6)GalNAc
# How it was run: as §1
# [7] = target: Neu5Ac(a2-6)Gal(b1-4)GlcNAc(b1-6)[Gal(b1-3)GlcNAc(b1-3)]Gal(b1-4)Glc
# How it was run: as §1
# [8] = target: Neu5Ac(a2-6)Gal(b1-4)GlcNAc(b1-6)[Gal(b1-3)]GalNAc
# How it was run: as §1
# [9] = target: Neu5Ac(a2-6)Gal(b1-4)GlcNAc6S
# How it was run: as §1
# [10] = target: Neu5Ac(a2-6)GalNAc
# How it was run: as §1
# [11] = target: Neu5Ac(a2-6)GalNAc(b1-4)GlcNAc
# How it was run: as §1
# [12] = target: Neu5Ac(a2-6)GalNAc(b1-4)GlcNAc6S
# How it was run: as §1
# [13] = target: Neu5Ac(a2-6)GlcNAc(b1-4)GlcNAc
# How it was run: as §1
# [14] = target: Neu5Ac(a2-6)GlcNAc(b1-4)GlcNAc(b1-4)GlcNAc
# How it was run: as §1
# [15] = target: Neu5Ac(a2-8)Neu5Ac
# How it was run: as §1
# [16] = target: Neu5Ac(a2-8)Neu5Ac(a2-3)Gal(b1-3)GalNAc(b1-4)[Neu5Ac(a2-3)]Gal(b1-4)Glc
# How it was run: as §1
# [17] = target: Neu5Ac(a2-8)Neu5Ac(a2-3)Gal(b1-3)GalNAc(b1-4)[Neu5Ac(a2-8)Neu5Ac(a2-3)]Gal(b1-4)Glc
# How it was run: as §1
# [18] = target: Neu5Ac(a2-8)Neu5Ac(a2-3)Gal(b1-4)Glc
# How it was run: as §1
# [19] = target: Neu5Ac(a2-8)Neu5Ac(a2-3)Gal(b1-4)GlcNAc
# How it was run: as §1
# [20] = target: Neu5Ac(a2-8)Neu5Ac(a2-3)[Gal(b1-3)GalNAc(b1-4)]Gal(b1-4)Glc
# How it was run: as §1
# [21] = target: Neu5Ac(a2-8)Neu5Ac(a2-3)[GalNAc(b1-4)]Gal(b1-4)Glc
# How it was run: as §1
# [22] = target: Neu5Ac(a2-8)Neu5Ac(a2-8)Neu5Ac
# How it was run: as §1
# [23] = target: Neu5Ac(a2-8)Neu5Ac(a2-8)Neu5Ac(a2-3)Gal(b1-4)Glc
# How it was run: as §1
# [24] = target: Neu5Ac(a2-8)Neu5Ac(a2-8)Neu5Ac(a2-3)[Gal(b1-3)GalNAc(b1-4)]Gal(b1-4)Glc
# How it was run: as §1
# [25] = target: Neu5Ac(a2-8)Neu5Ac(a2-8)Neu5Ac(a2-3)[GalNAc(b1-4)]Gal(b1-4)Glc
# How it was run: as §1
# [26] = target: Neu5Ac(a2-8)Neu5Ac(a2-8)Neu5Ac(a2-8)Neu5Ac(a2-3)[GalNAc(b1-4)]Gal(b1-4)Glc
# How it was run: as §1
# [27] = target: Neu5Ac(a2-8)Neu5Gc(a2-3)Gal(b1-4)GlcNAc
# How it was run: as §1
# [28] = target: Neu5Ac(b2-6)Gal(b1-4)GlcNAc
# How it was run: as §1
# [29] = target: Neu5Ac(b2-6)GalNAc
# How it was run: as §1
# [30] = target: Neu5Ac9Ac(a2-3)Gal(b1-3)GlcNAc
# How it was run: as §1
# [31] = target: Neu5Ac9Ac(a2-3)Gal(b1-4)GlcNAc
# How it was run: as §1
# [32] = target: Neu5Ac9Ac(a2-6)Gal(b1-4)GlcNAc
# How it was run: as §1
# [33] = target: Neu5Gc(a2-3)Gal(b1-3)GlcNAc
# How it was run: as §1
# [34] = target: Neu5Gc(a2-3)Gal(b1-3)[Fuc(a1-4)]GlcNAc
# How it was run: as §1
# [35] = target: Neu5Gc(a2-3)Gal(b1-4)Glc
# How it was run: as §1
# [36] = target: Neu5Gc(a2-3)Gal(b1-4)GlcNAc
# How it was run: as §1
# [37] = target: Neu5Gc(a2-3)Gal(b1-4)GlcNAc(b1-3)Gal(b1-4)GlcNAc(b1-2)Man(a1-3)[Neu5Gc(a2-3)Gal(b1-4)GlcNAc(b1-3)Gal(b1-4)GlcNAc(b1-2)Man(a1-6)]Man(b1-4)GlcNAc(b1-4)GlcNAc
# How it was run: as §1
# [38] = target: Neu5Gc(a2-3)Gal(b1-4)[Fuc(a1-3)]GlcNAc
# How it was run: as §1
# [39] = target: Neu5Gc(a2-6)Gal(b1-4)GlcNAc
# How it was run: as §1
# [40] = target: Neu5Gc(a2-6)GalNAc
# How it was run: as §1
# [41] = target: Neu5Gc(a2-8)Neu5Ac(a2-3)Gal(b1-4)GlcNAc
# How it was run: as §1
# [42] = target: Neu5Gc(a2-8)Neu5Gc(a2-3)Gal(b1-4)GlcNAc
# How it was run: as §1
# [43] = target: Neu5Gc(a2-8)Neu5Gc(a2-3)Gal(b1-4)GlcNAc(b1-3)Gal(b1-4)GlcNAc
# How it was run: as §1
# [44] = target: Neu5Gc(a2-8)Neu5Gc(a2-6)Gal(b1-4)GlcNAc
# How it was run: as §1
# [45] = target: Neu5Gc(b2-6)Gal(b1-4)GlcNAc
# How it was run: as §1
binder,measurement,setting,value
"LSECtin (Homo sapiens), Q6UXB4 (protein) MDTTRYSKWGGSSEEVPGGPWGRWVHWSRRPLFLALAVLVTTVLWAVILSILLSKASTERAALLDGHDLLRTNASKQTAALGALKEEVGDCHSCCSGTQAQLQTTRAELGEAQAKLMEQESALRELRERVTQGLAEAGRGREDVRTELFRALEAVRLQNNSCEPCPTSWLSFEGSCYFFSVPKTTWAAAQDHCADASAHLVIVGGLDEQGFLTRNTRGRGYWLGLRAVRHLGKVQGYQWVDGVSLSFSHWNQGEPNDAWGRENCVMMLHTGLWNDAPCDSEKDGWICEKRHNC",glycan array binding signal (z-score),[1],-0.129
same,glycan array binding signal (z-score),[2],-0.133
same,glycan array binding signal (z-score),[3],-0.187
same,glycan array binding signal (z-score),[4],-0.169
same,glycan array binding signal (z-score),[5],-0.133
same,glycan array binding signal (z-score),[6],-0.099
same,glycan array binding signal (z-score),[7],-0.127
same,glycan array binding signal (z-score),[8],-0.137
same,glycan array binding signal (z-score),[9],-0.058
same,glycan array binding signal (z-score),[10],-0.224
same,glycan array binding signal (z-score),[11],-0.182
same,glycan array binding signal (z-score),[12],-0.124
same,glycan array binding signal (z-score),[13],-0.231
same,glycan array binding signal (z-score),[14],-0.083
same,glycan array binding signal (z-score),[15],-0.115
same,glycan array binding signal (z-score),[16],-0.142
same,glycan array binding signal (z-score),[17],-0.044
same,glycan array binding signal (z-score),[18],-0.137
same,glycan array binding signal (z-score),[19],-0.141
same,glycan array binding signal (z-score),[20],-0.129
same,glycan array binding signal (z-score),[21],-0.145
same,glycan array binding signal (z-score),[22],-0.209
same,glycan array binding signal (z-score),[23],-0.117
same,glycan array binding signal (z-score),[24],-0.137
same,glycan array binding signal (z-score),[25],-0.21
same,glycan array binding signal (z-score),[26],-0.223
same,glycan array binding signal (z-score),[27],-0.135
same,glycan array binding signal (z-score),[28],-0.156
same,glycan array binding signal (z-score),[29],-0.124
same,glycan array binding signal (z-score),[30],-0.263
same,glycan array binding signal (z-score),[31],-0.077
same,glycan array binding signal (z-score),[32],-0.085
same,glycan array binding signal (z-score),[33],-0.2
same,glycan array binding signal (z-score),[34],-0.208
same,glycan array binding signal (z-score),[35],0.095
same,glycan array binding signal (z-score),[36],-0.157
same,glycan array binding signal (z-score),[37],-0.108
same,glycan array binding signal (z-score),[38],-0.188
same,glycan array binding signal (z-score),[39],0.062
same,glycan array binding signal (z-score),[40],-0.16
same,glycan array binding signal (z-score),[41],-0.137
same,glycan array binding signal (z-score),[42],-0.147
same,glycan array binding signal (z-score),[43],-0.126
same,glycan array binding signal (z-score),[44],-0.138
same,glycan array binding signal (z-score),[45],-0.058
